The other results are listed elsewhere or left out.

Among the data in PMC12136788 are binding signal values, retold here.

Sequences and labels used below:
B1: 186332082_186332542_819_CDS_ENSG00000047410_ENST00000367478|human|control|control (ssRNA)
RNA: GGGAGUUCUACAGUCCGACGAUCAUUCUGACUAUGUAGCAAUUCCUUUUCUUGCUCCAAGCGUUUUUCUCGAUACUUAACAGAAACAUCAGAAGCUUGAAGUUCAUCCAAUUUUAACUGAAGUUCACCCUUUGUUGUAUUGCUCAACAGAGGAUUGAGCAUCA
B2: 135892894_135896144_2817_CDS_ENSMUSG00000039959_ENSMUST00000060311|mouse|control|control (ssRNA)
RNA: GGGAGUUCUACAGUCCGACGAUCGGCCUGGUUCACUCCUCGAGAGGCCUGCUGCAGCUGGGUCAGAUUGAGGCUGCCCUUGUUCGCUUUCACCUUGGAUGCAGCCACGAGCUGGGCAGUACUGGCAGCAAUCUCGCGUGAACACAACAGAGGAUUGAGCAUCA
B3: chr16:37881740:37881741:+_ENSMUSG00000034158_ENSMUST00000078717|mus_hu|motif|central (ssRNA)
RNA: GGGAGUUCUACAGUCCGACGAUCCUGCAAACCAUCAGCCAAAUGUGAAACUAUCAUUCACAAAUUAUGUUAAAAUAAUCGGAACAUGGGACUGGACUCAUUCUUGCUGAAUGGGUAGAUGAAACACAAAAUGUUUUAUAUCAUCAACAGAGGAUUGAGCAUCA
B4: chr13:3555642:3555643:+_ENSMUSG00000021218_ENSMUST00000059515|mus_mus|motif|central (ssRNA)
RNA: GGGAGUUCUACAGUCCGACGAUCAUCAAACUUCUUAUACACAUCUCUCAUGGAGGUCUUCUUAGGAUCAACACCCUCGAAAGUUCGGGGAUCUUUUUCAUCAAAGUUGGCAACAUAAACCAGGAACUUCCUGAAACGGCGUUUCAACAGAGGAUUGAGCAUCA
B5: 135693221_135693341_2099_CDS_ENSMUSG00000002748_ENSMUST00000002825|mouse|control|control (ssRNA)
RNA: GGGAGUUCUACAGUCCGACGAUCGAGGUUUCUGCCACCUAACUCCUGGUCCUCAAAUCGCUUCUGCUUUUCUAACCUCUCCAGCAUUUCUCUCUCUCUCCGUUCUUUGGCUUUUUCCCGCAACCUCUCCUUUAGCUCCUGUCGCAACAGAGGAUUGAGCAUCA
B6: chr22:38884116:38884117:-_ENSG00000100201_ENST00000396821|hu_mus|motif|central (ssRNA)
RNA: GGGAGUUCUACAGUCCGACGAUCAUAAUCCUCUGAGCUGUUUGGAUAAUCGUAGUUGAUGACAAACUUGACAUCUUCCACAUCGGGCCCACGGGAGGCUACAUCCGUGGCAAUGAGGAUAGGAGCCUUUCCAGAUCGGAACUCCAACAGAGGAUUGAGCAUCA
B7: 32562287_32562407_2709_CDS_ENSG00000100852_ENST00000539826|human|control|control (ssRNA)
RNA: GGGAGUUCUACAGUCCGACGAUCUUUUCUUACUCCAAUUGAAGAGUGGUAUGAUAAUAUUGUGAUCUGUAUUCGCCUCCUUUUUUCACCAAUGAUUUUAUCAAGCAUUAGGGAAUUAUUCUGUCCAGCUUGAGCAGCACUGCACAACAGAGGAUUGAGCAUCA
B8: chr14:76904430:76904431:+_ENSMUSG00000022010_ENSMUST00000022587|mus_mus|mus_mus_mus_hu_True|1_38 (ssRNA)
RNA: GGGAGUUCUACAGUCCGACGAUCUGCAGCCAAAAACACCCUCGUGGAAAAAAAGAGGGAACACCAGCAGCCUUGUAUAAGCUAGAUAAAAUCUUCUAGCUGUCUGCAGCCCAGGGAGAAACAGAAAACGGCAGCCCUCGAGUGCAACAGAGGAUUGAGCAUCA
B9: chr7:150251850:150251851:+_ENSMUSG00000037706_ENSMUST00000037941|mus_mus|FALSE|FALSE (ssRNA)
RNA: GGGAGUUCUACAGUCCGACGAUCGAAGCCCCAGAUGCCUGCAGCCACCUCACAGGCAAACAGGAUCACAAGGCAGGUGAAGAACGUCCCCAGCAGACACUGGGACUCCUGGAUGGCCCCAUAGCACCCCAGGAAGCCUACAAACAACAGAGGAUUGAGCAUCA
B10: 137538005_137538125_1635_3pUTR_ENSMUSG00000030850_ENSMUST00000033139|mouse|control|control (ssRNA)
RNA: GGGAGUUCUACAGUCCGACGAUCGAGCCGAGAAGCAGGUGGGACUGUGGCAAGAGAUGCCAGGCUGGCGCUGGGCUGAGGUGCAGGCCUUCAGUGUCUGAACAGCAGCAUCCUCUCCGAGCACUUCUGUCCUACGAGGUUUGCCAACAGAGGAUUGAGCAUCA
B11: chr3:133126781:133126782:-_ENSMUSG00000040943_ENSMUST00000098603|mus_mus|motif|central (ssRNA)
RNA: GGGAGUUCUACAGUCCGACGAUCCAGUAUUUAUAACCACCCUCAGAUUGUAUAAACAAAGCCAAAAUCUCAGGAAGUAAGCGGCAUUAAAAAAUAAAGCAUAGAAAAAUGCACACAGAAGUUCAUUAUCUUAGUGUCAAACUGCAACAGAGGAUUGAGCAUCA
B12: chr1:115268999:115269000:-_ENSG00000009307_ENST00000339438|hu_hu|motif|central (ssRNA)
RNA: GGGAGUUCUACAGUCCGACGAUCUAAAAGUCGCACACAAGUUGCAACCUGCUGUCCAGGCCUCUGUUUGUCACUAAUACGGAAUUCAACCUUAUCUCCUAUUUGAGGAGAAGUAGAUCCUUCCACAUCCUUGGCUUGAAAAGCCAACAGAGGAUUGAGCAUCA
B13: chr11:29608385:29608386:+_ENSMUSG00000020458_ENSMUST00000102843|mus_hu|FALSE|FALSE (ssRNA)
RNA: GGGAGUUCUACAGUCCGACGAUCCCUGGCUAAUUUAGAAAAUGAAUCAGUUUUAGAACUGAUCAAUGUAGGGAACUCAUCUAUAAUUUCAAUUGGAGAUGAAUCUGAAAACGUUUCAGUUUCUCUUAUCUGUGCUUCCUUAGACAACAGAGGAUUGAGCAUCA
B14: chr3:179287964:179287965:+_ENSG00000136518_ENST00000429709|hu_hu|hu_hu_hu_mus_True|8_38 (ssRNA)
RNA: GGGAGUUCUACAGUCCGACGAUCCUUGAGUGGUGAGAUGGCCUCCAUGUUCUCCCUGGGCACGCGGAGGGCAUUGGUGUCUAUGUAGUAGGUGGGCCCGCCUUGUUUGCCUUUGUCACCAUCAAUCUCCAUUAAUGUACUUCCCAACAGAGGAUUGAGCAUCA
B15: 106621276_106621396_1018_CDS_ENSMUSG00000040661_ENSMUST00000046502|mouse|control|control (ssRNA)
RNA: GGGAGUUCUACAGUCCGACGAUCGGCCAGGAAGACAUUCUCCUCCUCUGGAGGGUGAUUCAGGUUGACAAGGACCCGCCCGAGAGCAUCAUGCUGGUUUAAGGCGUCAUUCACAUGGGUGCCACCCUUCUCCUCUUCCUCGUCCAACAGAGGAUUGAGCAUCA
B16: chr2:32654292:32654293:+_ENSG00000115760_ENST00000421745|hu_hu|FALSE|FALSE (ssRNA)
RNA: GGGAGUUCUACAGUCCGACGAUCUAAAGGUUUGGAACCUUCUGAAGAUGGUUCUAUUCCUUUAGAAAGAGAUCCAUCCACUAGUAUAUCAGCUUCAUCAAUAUCAUCACAGGUUCCUCCAAUUUGGAGAAAAUGAAGCUCACCCAACAGAGGAUUGAGCAUCA
B17: chr12:105536279:105536280:+_ENSG00000136051_ENST00000332180|hu_mus|hu_hu_hu_mus_True|1_1 (ssRNA)
RNA: GGGAGUUCUACAGUCCGACGAUCAGCACUGAACAUGUAAUGUAAUCUGGCUGCAUCGACAGCAUUUUCAUAUACAUCAUCUAAAUAAAUCGGGAAGACAGCGCGAUGCCAGUAUAAAAAACAGCAGUCACACUGUGUUUGGACCAACAGAGGAUUGAGCAUCA
B18: chr14:89338683:89338684:+_ENSG00000165533_ENST00000346301|hu_hu|hu_hu_hu_mus_False|78_98 (ssRNA)
RNA: GGGAGUUCUACAGUCCGACGAUCGUGGUUGUUGUGGACCAGAGCCAGCCUGAAGCACUGAUGGGCCAAGUUUGUAUCUCCGAUUCCCACAGCUAUGUGCCCCAGGUUGUACCAGACAUCAGCUGCCUCUUCUUCAUUUUCAGCCAACAGAGGAUUGAGCAUCA
B19: chr6:146598974:146598975:+_ENSMUSG00000030291_ENSMUST00000032429|mus_mus|FALSE|FALSE (ssRNA)
RNA: GGGAGUUCUACAGUCCGACGAUCCAGUGGCAAUUUCAGAGUUUUUUACUUAUCAAGAGUGAAAACAGAACACAAUGAAAACUAGCUAAAAAAAAAGGCAACACAGUCAUAGCAUAUGAUAUUCUGUAGCUGUUGGUAGGGCUUCAACAGAGGAUUGAGCAUCA
B20: chr14:66974463:66974464:+_ENSMUSG00000022044_ENSMUST00000074523|mus_hu|mus_mus_mus_hu_False|8_68 (ssRNA)
RNA: GGGAGUUCUACAGUCCGACGAUCUUGUAGGACGACUUAUUCAGGGGAUCGGCCAGGAAGCAGGAGCAGAACAGAGACACCAGCGGGAGCUCCUUCAUCUUCUCUUUGUAGGCAGCAAGGGUCAUGUUGGCUGGAAUUGGUGGCCAACAGAGGAUUGAGCAUCA
B21: 64824021_64825391_2519_3pUTR_ENSG00000184575_ENST00000332707|human|control|control (ssRNA)
RNA: GGGAGUUCUACAGUCCGACGAUCAACAGUCCAGAUAAACUUCGGAACAGCCACAUUGUUUCACAGUCUGUUUGUUGCUGAAAGCUUUACUGGUUCGACUUGCAAAUCCAACAGCAUGGUUAAGACAGUCUGCUAGAGAGGCUUCAACAGAGGAUUGAGCAUCA
B22: chr16:45382771:45382772:-_ENSMUSG00000022661_ENSMUST00000163230|mus_mus|mus_mus_mus_hu_True|68_78 (ssRNA)
RNA: GGGAGUUCUACAGUCCGACGAUCCUGGGUCAUGUUAUAAGACAAAUGGACAGGGAGAGCAUGCUUUUGUAAAGAUGUGAGCUAUUGUCUAAGACUAACAAUAUUUAUCUAGCUAUAAAAAUAAGUUAAAUGAAUAAGUUAAGACAACAGAGGAUUGAGCAUCA

The assay has as its target T1, UNK ZnF1-3 (human, UniProt Q9C0B0 31-174).
T1 sequence: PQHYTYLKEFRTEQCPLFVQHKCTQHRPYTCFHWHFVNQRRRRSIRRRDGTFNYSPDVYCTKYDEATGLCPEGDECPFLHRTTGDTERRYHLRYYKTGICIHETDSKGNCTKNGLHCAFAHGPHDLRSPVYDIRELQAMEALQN
Description: nsRBNS (natural sequence RNA bind-n-seq); RBNS binding buffer (assumed for nsRBNS): 25 mM Tris pH 7.5, 150 mM KCl, 3 mM MgCl2, 0.01% Triton X-100, 500 ug/ml BSA, 20 U/ml SUPERase-In, 4 C; UNK is unkempt and MSI1 is Musashi-1; names of the RNAs are library labels; protein concentration not given here; high values mean tight binding.
The molecule B1 yielded a binding signal of 0.584 enrichment R. With B2 the figure was 0.814 enrichment R; with B3, 0.893 enrichment R; with B4, 0.875 enrichment R.

Molecule B5 gave a binding signal of 0.425 enrichment R. B6 displayed a binding signal of 0.94 enrichment R.

The molecule B7 came in with a binding signal of 0.763 enrichment R. For B8, the binding signal was 2.33 enrichment R. The same measure for B9: 1.17 enrichment R; for B10: 1.09 enrichment R; for B11: 1.35 enrichment R.

Molecule B12 showed a binding signal of 0.71 enrichment R. With B13 the figure was 1.02 enrichment R.

In turn, B14 returned a binding signal of 0.605 enrichment R. The same measure for B15: 1.06 enrichment R; for B16: 0.545 enrichment R. Molecule B17 had a binding signal of 1.61 enrichment R. Molecule B18 registered a binding signal of 0.739 enrichment R.

On to B19, for which the binding signal worked out at 1.6 enrichment R. B20 registered a binding signal of 2.14 enrichment R. The same measure for B21: 0.944 enrichment R; for B22: 0.952 enrichment R.
